# Data as given in the supplement of paper PMC11417369.
# ± gives the standard deviation of the averaged measurements. The list shows a part of the results.
# Tested on: PfAP2-EXP AP2 domain (GST-tagged)
# Assay: gcPBM binding intensity (ln(normalized median fluorescence intensity)); higher = stronger DNA binding
# In short: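 Alexa488 anti-GST antibody, scanned at 488 nm, detected GST-tagged P. falciparum DNA-binding domains that had been expressed in E. coli and incubated for 1 h on an Agilent 4 × 180k array. The array carried primer-extended double-stranded 36-bp intergenic genomic probes and negative controls. Binding intensity is the highest Masliner-normalised natural-log median intensity across replicate spots of either orientation of each probe.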
row,Sequence,gcPBM binding intensity (ln)
1,TTTTTTTTTTTATTTGCATGCGGTGTTCATAATATT [TGCATGCA_site199],9.58 ± 0.3
2,CGTTCATATTATTATAGTACATATTATTATAGTTTT [XGTACX_site1550],8.61 ± 0.4
3,TATTTGTAAATTATTTGGGTGTGTAGGGGATATTCT [XGTACX_negctrl_site204],9.26 ± 0.66
4,AGAAGAAAAGTAAAAAGTACATTATTCATGGCCTAT [XGTACX_site5601],8.37 ± 0.33
5,TTGGTGGATAAATTTACACACAATAACTTTCGTTCA [CACACA_site6358],8.46 ± 0.3
6,ATATAAGAAATAAAGAAAAATGTGTTTTTTTTTTTT [XGTACX_negctrl_site396],8.13 ± 0.43
7,AAACAAATATTTATCACAATGTCATTTTGTTAACAT [GTGCAC_negctrl_site171],8.66 ± 0.42
8,TTTTTCCTAACATATTATATACTTGAATATTTATTA [CACACA_negctrl_site156],8.44 ± 0.29
9,TTTATCTTATTTTTATGTACTTATTTTATAAAAAAA [XGTACX_site7730],8.83 ± 0.21
10,AGAGCTGTTTTTTATGCATGTAGTTTAGAAAATACA [TGCATGCA_site257],8.69 ± 0.33
11,CTTTGTAGTATATTAACACACAACTGTTTATAATAT [CACACA_site6038],8.49 ± 0.42
12,TATATACTCATGCGCACACACAAGTGGGAAATTTGG [CACACA_site5056],8.98 ± 0.38
13,TTCTTTAAAAAATTCGATAAAAAAAAAAAAAGAAAA [CACACA_negctrl_site242],8.37 ± 0.45
14,GGAAAGACAGTTCACAGTACCCAGGAAATCTACGGA [XGTACX_site1996],8.69 ± 0.52
15,ATATACATATATATTGCATGCAGAGAGTATTTATAA [TGCATGCA_site646],10.085 ± 0.007
16,ATATATATATATATTGTGCACAAAAAAAAATAAGCA,10.1 ± 0.16
17,ATATATTATAGGTACACACACATATAAGGGATTATA [CACACA_site6154],8.71 ± 0.39
18,TTATTAAATATGTACACACGTACATTTTATAAATGA [CACACA_site2387],8.12 ± 0.3
19,TATATATATATTTAGTGTACTTAAAAAAAATAATAA [XGTACX_site5454],9.375 ± 0.021
20,TATTTTTTTTTCCATTGTACATTTTTGATATTTTTC [XGTACX_site744],8.84 ± 0.59
21,ATAATAATAAAATATATATACAAAGGTGAAATTATA [TGCATGCA_negctrl_site197],8.79 ± 0.32
22,AAGTAAAATAAGTATACACACATAAATATATATATA [CACACA_site685],9.61 ± 0.18

row,Sequence,gcPBM binding intensity (ln)
1,TATAATAATACGTATTGTACTATTAGGTTAATTCGT [XGTACX_site264],8.34 ± 0.33
2,TCTATAAAGGAATATACACACATATATATATATATA [CACACA_site410],10 ± 0.26
3,ACTTGTAAGAAACACACACACACACCCATATATATA [CACACA_site796],8.79 ± 0.34
4,TTTTCTTGTAAATTACGTACGAATGTGTAGAGAAAT [XGTACX_site1339],9.02 ± 0.42
5,ATCCTCTTTACAATATGTACATAAATATATATTTAT [XGTACX_site8001],9.15 ± 0.33
6,TATTTATTTATTTATTTATTTATTTATTTATATTTA [CACACA_negctrl_site398],8.41 ± 0.29
7,TATATATTTTTATTATGTACATATTAACAATGTGTT [XGTACX_site879],8.49 ± 0.4
8,TATATATATAAATACACACACATATATATATATATA [CACACA_site4867],10.2 ± 0.25
9,TAAAATATAAAACACACACACATATATATATATATT [CACACA_site224],8.54 ± 0.43
10,TTTGAGATAAAAGACTGTACTTAGAATGTATAAAAA [XGTACX_site203],8.53 ± 0.33
11,TTTAATTTTATATAGAGTACAAAAAAATAGAAAGAT [XGTACX_site3870],8.91 ± 0.48
12,ATATATATATATATATGTACATAAATATTTTAAAAT [XGTACX_site4980],10.3 ± 0.4
13,AAAAAAAAAAAAAACTGTACCAAAAAGAATATATAC [XGTACX_site8345],8.79 ± 0.54
14,TTGTTTCTACAATTTAATAAAATACGTTTTCAAAAA [XGTACX_negctrl_site377],8.15 ± 0.52
15,TACTCCTTAAATATATGTAAAGGAAGAAAAAAAAAA [XGTACX_negctrl_site306],8.54 ± 0.53
16,ACAATAAAAATAAAAAGTACAAATAAAAAAAATAAA [XGTACX_site6718],8.73 ± 0.4
17,AATATATGTTTAATTTCACACACAAATATACATTTT [CACACA_site9385],8.56 ± 0.35
18,ATATATATATATATATGTACACATATACGCTTTTTC [XGTACX_site3838],10.3 ± 0.28
19,ATATGTCACTTGTATACACACATATATATTTCAATC [CACACA_site3256],9.32 ± 0.54
20,TTACTTATAAATAAATATACAAAAATGTTATATATA [XGTACX_negctrl_site223],7.96 ± 0.45
21,CTGAAAAAAAAGCTTGCACACGTATTTGCTTTATGT [CACACA_site8427],8.47 ± 0.46
22,TTTTTTGTGTTTGGTACACACGTTATAAAAAATAAA [CACACA_site4866],8.45 ± 0.37

row,Sequence,gcPBM binding intensity (ln)
1,TTTTTTTTTTTTGAAGTGCATTACTTTTTTTGTATT [GTGCAC_site9811],8.5 ± 0.23
2,AGGAATATAAAGTGCACACATAATTTGGGGGCAAAA [CACACA_site258],9.59 ± 0.23
3,GAAAATAGCTAAAATACACACAATTAAAAATTATTA [CACACA_site3506],8.3 ± 0.31
4,TTGTAAAACTTATAATGTACATTTTTTTTTTTTTTT [XGTACX_site5398],8.43 ± 0.28
5,AGGGACATCTATATCACACACAAAAATTAGTCCCTT [CACACA_site7330],8.63 ± 0.46
6,TTTTTTTTTTTTTGCACACACATTGAATTATTATTC [CACACA_site197],8.62 ± 0.34
7,TATATAGAGAGATATGCACACTGTATGAATGCCCCC [CACACA_site5476],10.3 ± 0.38
8,TATACCTATATACATACATGCAAATATATATTCATA [TGCATGCA_site269],8.77 ± 0.17
9,ATAAGAAAATATAAAATGCACACTATAAATTGTATA [CACACA_site143],8.52 ± 0.35
10,TTTAAAAATAAAAGTACACACATAAACATATTACAC [CACACA_site1428],8.88 ± 0.36
11,TATAATACAACATGCACACATATATATGTGAATCTC [CACACA_site2490],8.87 ± 0.33
12,ATAAAATAAACATAAATAAACATAAATAAACAAAAA [CACACA_negctrl_site1270],8.75 ± 0.4
13,AGGTATATATACATATGTACGTATATATATATATAT [XGTACX_site5115],10.1 ± 0.13
14,GGCGTATGTGTATATACACACCCACGTATATAAATA [CACACA_site7489],8.68 ± 0.42
15,TTTCTAATTTATATCACACACATATTTATATAGTAA [CACACA_site6813],8.4 ± 0.33
16,TTATATAAATTATTTACACACAAACATTTATACTTT [CACACA_site3449],8.38 ± 0.36
17,ATACTTTATTCGTTAGCACACAATTCAAGTTGATTC [CACACA_site1123],8.71 ± 0.42
18,TATTCCCTTCTTCCTTCTGTTTTTGATATTAAAGGG [GTGCAC_negctrl_site270],8.71 ± 0.49
19,AAGATACCCCAAAATTGTACATATTAAAATAATAAA [XGTACX_site3603],9.12 ± 0.48
20,ATATTCATATATACTTCACACACATTTTATCATTCA [CACACA_site8784],8.71 ± 0.39
21,AAAAAAAAAAATAAATAAATAAATAAATATATATAT [TGCATGCA_negctrl_site468],9.27 ± 0.028
22,TACATACATATATATACACACATATATAATATATAT [CACACA_site388],8.45 ± 0.4

row,Sequence,gcPBM binding intensity (ln)
1,TATATATACATATACACACATACGTACATACATATA [CACACA_site3585],8.75 ± 0.31
2,ATGAAAGTAAGACATGCATGGAATTTTTTTTATTAG [TGCATGCA_site348],8.35 ± 0.35
3,ATAATCCAACTTTGAGTGCGTGGTGTTTTTTTTTTC,8.24 ± 0.26
4,GGAATATTTTATGAGTGTACATTTTTTTTTTTTTTT [XGTACX_site2370],8.45 ± 0.24
5,TTTCTTTTTTTTTTTTTTTCTTTTTTTTTTTTTTTC [CACACA_negctrl_site1025],8.06 ± 0.57
6,CATATACATATATGTAGTACGTGTTCTTCTATATGA [XGTACX_site8344],8.8 ± 0.33
7,AAATTGAATTAGTTAACACACAACTTTTATTTCATA [CACACA_site2840],8.29 ± 0.42
8,ATTAATATGAAACGATTATAAGAAAGAAAAGAAATG [GTGCAC_negctrl_site701],8.69 ± 0.61
9,TACATATACAGACACACACACACACCCCCACAAAAA [CACACA_site495],9.88 ± 0.52
10,GTTATATGTTATATATATATATATATATATATATAT [TGCATGCA_negctrl_site428],10.2 ± 0.65
11,AAATTAATAAGTCACACACACATATATAATATATAT [CACACA_site799],8.54 ± 0.36
12,AATATATACATTTATATACACACCTATATATATATA [CACACA_site1972],10 ± 0.2
13,AGCATCATTTTACACACATGCAAATGTAAAATAGGA [TGCATGCA_site460],8.83 ± 0.42
14,ATAAAGATTAATTCAAGTACACATCAAATACTACAA [XGTACX_site8794],8.53 ± 0.26
15,TATATATATTTATGTACACACATCAATCATATTAAC [CACACA_site5127],8.7 ± 0.057
16,ATAAATAAAATAAAAGCACACAAAATGTAAATAATT [CACACA_site8895],8.8 ± 0.3
17,TTTACCTCTTCAATGGTGCAATAACTCAAAAATTTG,8.56 ± 0.11
18,TTTTTATTTTATTAGTGTACTTTATATTTAACAATA [XGTACX_site1175],8.65 ± 0.2
19,AAAAAAAAAAAAAGTACACACATACCTATAAATATA [CACACA_site6937],8.47 ± 0.37
20,TTTATTTTTATAAGAGCATGCACTGTTTAAAATGGT [TGCATGCA_site628],9.39 ± 0.25
21,TATATATTTATAAATGAACACACACCCAATTTGAAT [CACACA_site9113],8.96 ± 0.42
22,TTTATATACATTTTAAATTTTAATGTAACCCATGGG [TGCATGCA_negctrl_site115],8.38 ± 0.59
